{"source": "PubChem BioAssay AID1508642", "about": "(National Center for Advancing Translational Sciences (NCATS), 2021)", "note": "The whole screen tested about 43,000 compounds, of which about 200 (0.47%) were called active. Inconclusive results (about 12%) are left out. The call rests on the fitted dose curve; in most records, active means well fitted cell-killing curve with a large enough effect; inconclusive means small, poorly fitted or top-dose-only effect, or effect the other way; inactive means flat fitted curve, though single readings scatter. The list shows a part of the results. On the % scale 0 is the no-effect control and ±100 the full control effect.", "data": [{"experiment": "Cell viability qHTS assay in S16 Pmp22-F2sN cells; further: nearly all actives have a fitted effect of over 65% in size", "conditions": "S16 Pmp22-F2sN Schwann cells (luciferase reporters placed in the Pmp22 gene) viability, CellTiter-Glo, 24 h; series mostly up to 57.5 µM; activity change, negative = cytotoxicity: at the top concentration", "summary_of_the_method": "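Seed 500-1,000 S16 Pmp22-F2sN cells per well in phenol-red-free DMEM with 10% heat-inactivated FBS; pin-add 23 nL compound; incubate 24 h at 37C; add CellTiter-Glo, wait 15 min protected from light; read luminescence.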", "values": [{"compound": "CCCCOc1ccc(Cn2c(=O)sc3ccccc32)cc1", "activity change, negative = cytotoxicity": "inactive: -0.0367%"}, {"compound": "CCc1ccc(NC(=O)c2nn(-c3ccc(OC)cc3)c(=O)c3c2c2ccccc2n3C)cc1", "activity change, negative = cytotoxicity": "inactive: 8.66%"}, {"compound": "CCc1ccc(Oc2c(C(F)(F)F)oc3c(CN4CCCC(C)C4)c(O)ccc3c2=O)cc1", "note": "(stereo not given)", "activity change, negative = cytotoxicity": "inactive: 5.37%"}, {"compound": "O=C(Nc1cccc(NC(=O)c2ccccc2Cl)c1)c1cccc(Br)c1", "activity change, negative = cytotoxicity": "inactive: -9.96%"}, {"compound": "CCc1ccccc1NC(=O)C1CCCN(c2cnccn2)C1", "note": "(stereo not given)", "activity change, negative = cytotoxicity": "inactive: -5.29%"}, {"compound": "Cc1ccc(NC(=O)CSc2nc(=O)cc(N)n2CCc2ccccc2)cc1", "activity change, negative = cytotoxicity": "inactive: -2.81%"}, {"compound": "COc1ccc(NC(=O)C(NC(=O)/C=C\\c2ccc3c(c2)OCO3)c2ccccc2)cc1", "note": "(stereo not given)", "activity change, negative = cytotoxicity": "inactive: -27.5%"}, {"compound": "CSc1ncc(C(=O)N2CCN(c3cccc(C(F)(F)F)c3)CC2)c(C)n1", "activity change, negative = cytotoxicity": "inactive: -4.86%"}, {"compound": "COc1ccccc1OCC(=O)Nc1c(C(=O)c2ccc(F)cc2)oc2ccccc12", "activity change, negative = cytotoxicity": "inactive: 16.5%"}, {"compound": "CCCN(CCC)CCCNC(=O)c1cc2c(=O)[nH]c3ccccc3c2n1C", "activity change, negative = cytotoxicity": "inactive: 0.725%"}, {"compound": "COc1cccc(-n2c(=O)c3sc4ccccc4c3n(CC(=O)Nc3ccccc3C)c2=O)c1", "activity change, negative = cytotoxicity": "inactive: 22.6%"}, {"compound": "COc1ccc(C2CC(=O)c3cc(-c4nc(-c5cccc([N+](=O)[O-])c5)cs4)c(=O)n(-c4ccc(OC)cc4)c3C2)cc1", "note": "(stereo not given)", "activity change, negative = cytotoxicity": "inactive: -0.543%"}, {"compound": "COc1ccc(C2N3CC4(C)CN2CC(c2ccccc2)(C3)C4=O)cc1OC", "note": "(stereo not given)", "activity change, negative = cytotoxicity": "inactive: 5.68%"}, {"compound": "Cc1ccc(NC(=O)C2CCN(S(=O)(=O)c3cc(-c4noc(C)n4)ccc3C)CC2)c(C)c1", "activity change, negative = cytotoxicity": "inactive: -20.4%"}, {"compound": "Cc1ccc(Cl)cc1NC(=O)CN1C(=O)C(C)(C)c2cc(S(=O)(=O)N3CCCCC3)ccc21", "activity change, negative = cytotoxicity": "inactive: -3.21%"}, {"compound": "COc1ccc(S(=O)(=O)c2cnc(SCC(=O)Nc3cc(F)ccc3C)[nH]c2=O)cc1Cl", "activity change, negative = cytotoxicity": "inactive: 8.12%"}, {"compound": "CCC1CCCCN1C(=O)c1sc(-n2nc(C)c(Cc3ccccc3)c2C)nc1C", "note": "(stereo not given)", "activity change, negative = cytotoxicity": "inactive: 2.94%"}, {"compound": "CCOC(=O)c1ccc(OC(=O)c2cn(-c3cccc(OC)c3)c(=O)c3ccccc23)cc1", "activity change, negative = cytotoxicity": "inactive: 1.43%"}, {"compound": "CCc1ccc2c(c1)NC(c1ccc(OC)cc1)=NC(c1ccncc1)=N2", "activity change, negative = cytotoxicity": "inactive: 10%"}, {"compound": "CCOc1ccccc1NC(=O)C(C)N(c1ccccc1)S(C)(=O)=O", "note": "(stereo not given)", "activity change, negative = cytotoxicity": "inactive: -5.95%"}, {"compound": "COc1cc(/C=C/c2nc(C#N)c(N3CCC(C)CC3)o2)cc(OC)c1OC", "activity change, negative = cytotoxicity": "inactive: -18.8%"}, {"compound": "COc1cccc(OC(=O)CSc2nnc(-c3ccc4c(c3)OCO4)o2)c1", "activity change, negative = cytotoxicity": "inactive: 3.48%"}, {"compound": "CC(C)CCN(C(=O)Nc1ccc(Cl)c(Cl)c1)C(C)c1cccs1", "note": "(stereo not given)", "activity change, negative = cytotoxicity": "inactive: -11.2%"}, {"compound": "CCOC(=O)c1c(S(=O)(=O)NCC(=O)NCc2ccccc2)c(C)n(C)c1C", "activity change, negative = cytotoxicity": "inactive: 10.5%"}, {"compound": "Cc1cccc(-c2nc3c4ccccc4nc(NCc4ccc(F)cc4)n3n2)c1", "activity change, negative = cytotoxicity": "inactive: 9.57%"}, {"compound": "COc1ccc(NCc2cc3ccc(OC)cc3n(CC(=O)Nc3cc(Cl)ccc3C)c2=O)cc1", "activity change, negative = cytotoxicity": "inactive: 11.4%"}, {"compound": "CCOc1ccc(NS(=O)(=O)c2ccc3[nH]cc(C(=O)NCC4CCCO4)c(=O)c3c2)cc1", "note": "(stereo not given)", "activity change, negative = cytotoxicity": "inactive: 15.5%"}, {"compound": "Nc1c(-c2nc(-c3ccc(F)cc3)cs2)c2ccccn2c1C(=O)c1ccc2c(c1)OCO2", "activity change, negative = cytotoxicity": "inactive: -1.77%"}, {"compound": "CCOc1ccc(N2CC(C(=O)NCc3nnnn3-c3ccc(C)c(C)c3)CC2=O)cc1", "note": "(stereo not given)", "activity change, negative = cytotoxicity": "inactive: 14%"}, {"compound": "CCc1cccc(NC(=O)CN(C)S(=O)(=O)c2cccc3cccnc23)c1", "activity change, negative = cytotoxicity": "inactive: 6.3%"}, {"compound": "CC1CCc2c(sc(NC(=O)c3cc4nc(-c5ccc(Cl)cc5)cc(C(F)(F)F)n4n3)c2C#N)C1", "note": "(stereo not given)", "activity change, negative = cytotoxicity": "inactive: 16.1%"}, {"compound": "CCSc1ncc(Cl)c(C(=O)Nc2sc3c(c2C(=O)NC)CCCC3)n1", "activity change, negative = cytotoxicity": "inactive: 2.13%"}, {"compound": "CCc1ccc(NC(=O)c2cnc3sc(N4CCCC4)nn3c2=O)cc1", "activity change, negative = cytotoxicity": "inactive: 10.7%"}, {"compound": "Cc1cc2nc(-c3ccc(OCc4ccccc4)cc3)cc(C(F)(F)F)n2n1", "activity change, negative = cytotoxicity": "inactive: 9.09%"}, {"compound": "O=C(Cn1c(=O)c2cccn2c2cccnc21)NCc1ccccc1F", "activity change, negative = cytotoxicity": "inactive: 4.55%"}, {"compound": "Cc1cc(-n2c(C)nc3ccccc3c2=O)ccc1NC(=O)c1ccc([N+](=O)[O-])cc1", "activity change, negative = cytotoxicity": "inactive: -3.27%"}, {"compound": "O=C(Nc1ccc(S(=O)(=O)N2CCCCCC2)cc1)c1cc(=O)c2ccccc2o1", "activity change, negative = cytotoxicity": "inactive: -18.2%"}, {"compound": "CCn1c2ccccc2c2cc(CN3CCN(Cc4ccccc4C)CC3)ccc21", "activity change, negative = cytotoxicity": "inactive: 25.2%"}, {"compound": "COc1ccccc1C(=O)Nc1ccc(OCc2cc(=O)n3cc(C)sc3n2)cc1", "activity change, negative = cytotoxicity": "inactive: 3.4%"}, {"compound": "CCc1ccc(NC(=O)Cn2c(-c3cncs3)nc3ccccc32)cc1", "activity change, negative = cytotoxicity": "inactive: 0.447%"}, {"compound": "c1ccc(OCCn2c(COc3ccccc3)nc3ccccc32)cc1", "activity change, negative = cytotoxicity": "inactive: 3.56%"}, {"compound": "O=C1c2oc3ccccc3c(=O)c2C(c2cccc(Cl)c2)N1c1ccccn1", "note": "(stereo not given)", "activity change, negative = cytotoxicity": "inactive: -1.78%"}, {"compound": "Cc1ccc2[nH]c(=O)c3cc(C(=O)NCCc4ccc(Cl)cc4)sc3c2c1", "activity change, negative = cytotoxicity": "inactive: -6.53%"}, {"compound": "O=C(c1ccc2c(c1)N(Cc1cccc(Cl)c1)C(=O)c1ccccc1S2)N1CCOCC1", "activity change, negative = cytotoxicity": "inactive: -3.42%"}, {"compound": "COc1ccc(CCN2C(=O)CN(C3CCC(C)CC3)C(=O)C2c2ccc(OC(C)C)c(OC)c2)cc1OC", "note": "(stereo not given)", "activity change, negative = cytotoxicity": "inactive: -27%"}, {"compound": "Cc1ccccc1C(=O)c1cccn1CC(=O)NCc1cccc(Cl)c1", "activity change, negative = cytotoxicity": "inactive: 0.555%"}, {"compound": "CCc1ccc(S(=O)(=O)c2nnn3c2nc(NCCNC(C)=O)c2cc(Cl)ccc23)cc1", "activity change, negative = cytotoxicity": "inactive: -0.66%"}, {"compound": "CC(C)(C)NC(=O)c1oc2ccccc2c1NC(=O)c1ccc(F)cc1", "activity change, negative = cytotoxicity": "inactive: 6.92%"}, {"compound": "CCc1nn(CCCC(=O)NC(C)c2ccccc2)c(=O)c2cc3occc3n12", "note": "(stereo not given)", "activity change, negative = cytotoxicity": "inactive: 7.5%"}, {"compound": "Cc1ccc(Cn2cc(CCC(=O)NCc3ccc(OC(C)C)cc3)c3ccccc32)cc1", "activity change, negative = cytotoxicity": "inactive: 4.15%"}, {"compound": "COc1cc(-c2cc(OC)c3c(C)oc(C)c3c(=O)c2)ccc1OC(=O)c1cccc(Cl)c1", "activity change, negative = cytotoxicity": "inactive: -1.96%"}, {"compound": "COc1ccc(NC(=O)CCCN2C(=O)COc3ccc(C)cc32)cc1OC", "activity change, negative = cytotoxicity": "inactive: -1.6%"}, {"compound": "Cc1ccc(S(=O)(=O)c2nnn3c2nc(NCc2ccccc2Cl)c2sccc23)cc1", "activity change, negative = cytotoxicity": "inactive: 5.45%"}, {"compound": "CCOC(=O)c1ccc(NC(=O)c2nn(C)c3c2COc2ccccc2-3)cc1", "activity change, negative = cytotoxicity": "inactive: -5.44%"}, {"compound": "CC(C)c1ccc(OCc2cc(=O)n3c(-c4ccccc4)csc3n2)cc1", "activity change, negative = cytotoxicity": "inactive: 13.5%"}, {"compound": "O=C(Cn1c(=O)n(-c2ccc(Cl)cc2)c(=O)c2c3c(sc21)CCC3)c1ccccc1", "activity change, negative = cytotoxicity": "inactive: 23.7%"}, {"compound": "CCOC(=O)c1c(NC(=O)CSc2cn(CCNC(=O)c3ccccc3F)c3ccccc23)sc2c1CCCC2", "activity change, negative = cytotoxicity": "inactive: 0.24%"}, {"compound": "CC(C)(C)OC(=O)N1CCC(c2c(C(=O)N3CCN(C(=O)c4ccco4)CC3)cnn2-c2ccccc2Cl)CC1", "activity change, negative = cytotoxicity": "inactive: 7.89%"}, {"compound": "COCCCNC(=O)c1ccc2c(c1)NC(=O)C(C(C)C)N2", "note": "(stereo not given)", "activity change, negative = cytotoxicity": "inactive: 8.42%"}, {"compound": "COc1ccccc1NC(=O)c1c(NC(=O)c2ccccc2Cl)sc2c1CCC2", "activity change, negative = cytotoxicity": "inactive: 8.84%"}]}]}
